# Test results reported in the supplement of paper PMC8728848.
# This is one part of the list.
# How the values were obtained:
# Assay in all cases: glycan array binding signal (z-score within array); higher = stronger binding
# Conditions in all cases: glycan notation: IUPAC condensed, linker removed
# [1] = target: Glc(b1-3)Glc
# In short: (§1)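 From the Consortium for Functional Glycomics database, 3228 arrays were curated, keeping only those whose protein sequence was available. Binding is given as a within-array Z-score averaged across arrays sharing a protein sequence and across linkers. Negative Z-scores can be read as non-binding.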
# [2] = target: Glc(b1-3)Glc(b1-3)Glc
# In short: as §1
# [3] = target: Glc(b1-3)Glc(b1-3)Glc(b1-3)Glc
# In short: as §1
# [4] = target: Glc(b1-3)Glc(b1-3)Glc(b1-3)Glc(b1-3)Glc
# In short: as §1
# [5] = target: Glc(b1-3)Glc(b1-3)Glc(b1-3)Glc(b1-3)Glc(b1-3)Glc
# In short: as §1
# [6] = target: Glc(b1-3)Glc(b1-3)Glc(b1-3)Glc(b1-3)Glc(b1-3)Glc(b1-3)Glc
# In short: as §1
# [7] = target: Glc(b1-3)Glc(b1-3)Glc(b1-3)Glc(b1-3)Glc(b1-3)Glc(b1-3)Glc(b1-3)Glc
# In short: as §1
# [8] = target: Glc(b1-3)Glc(b1-3)Glc(b1-3)Glc(b1-3)Glc(b1-3)Glc(b1-3)Glc(b1-3)Glc(b1-3)Glc
# In short: as §1
# [9] = target: Glc(b1-3)Glc(b1-3)Glc(b1-3)Glc(b1-3)Glc(b1-3)Glc(b1-3)Glc(b1-3)Glc(b1-3)Glc(b1-3)Glc
# In short: as §1
# [10] = target: Glc(b1-3)Glc(b1-3)Glc(b1-3)Glc(b1-3)Glc(b1-3)Glc(b1-3)Glc(b1-3)Glc(b1-3)Glc(b1-3)Glc(b1-3)Glc
# In short: as §1
# [11] = target: Glc(b1-3)Glc(b1-3)Glc(b1-3)Glc(b1-3)Glc(b1-3)Glc(b1-3)Glc(b1-3)Glc(b1-3)Glc(b1-3)Glc(b1-3)Glc(b1-3)Glc
# In short: as §1
# [12] = target: Glc(b1-3)Glc(b1-3)Glc(b1-3)Glc(b1-3)Glc(b1-3)Glc(b1-3)Glc(b1-3)Glc(b1-3)Glc(b1-3)Glc(b1-3)Glc(b1-3)Glc(b1-3)Glc
# In short: as §1
# [13] = target: Glc(b1-3)Glc(b1-3)Glc(b1-3)Glc(b1-3)Glc(b1-3)Glc(b1-3)Glc(b1-3)[Glc(b1-6)]Glc(b1-3)Glc
# In short: as §1
# [14] = target: Glc(b1-3)Glc(b1-3)Glc(b1-3)Glc(b1-3)Glc(b1-3)Glc(b1-3)[Glc(b1-6)]Glc(b1-3)Glc(b1-3)Glc
# In short: as §1
# [15] = target: Glc(b1-3)Glc(b1-3)Glc(b1-3)Glc(b1-3)[Glc(b1-6)]Glc(b1-3)Glc(b1-3)Glc(b1-3)Glc(b1-3)Glc
# In short: as §1
# [16] = target: Glc(b1-3)Glc(b1-3)Glc(b1-3)[Glc(b1-6)]Glc(b1-3)Glc(b1-3)Glc(b1-3)Glc(b1-3)[Glc(b1-6)]Glc(b1-3)Glc
# In short: as §1
# [17] = target: Glc(b1-3)Glc(b1-3)[Glc(b1-6)]Glc(b1-3)Glc(b1-3)Glc(b1-3)Glc(b1-3)Glc(b1-3)Glc(b1-3)Glc
# In short: as §1
# [18] = target: Glc(b1-3)Glc(b1-4)Glc
# In short: as §1
# [19] = target: Glc(b1-3)Glc(b1-4)Glc(b1-4)Glc
# In short: as §1
# [20] = target: Glc(b1-3)Glc(b1-4)Glc(b1-6)Glc(b1-4)Glc
# In short: as §1
# [21] = target: Glc(b1-3)[Glc(b1-6)]Glc(a1-3)Glc(b1-3)[Glc(b1-6)]Glc
# In short: as §1
# [22] = target: Glc(b1-3)[Glc(b1-6)]Glc(b1-3)Glc(b1-3)Glc(b1-3)Glc(b1-3)Glc(b1-3)Glc(b1-3)Glc
# In short: as §1
# [23] = target: Glc(b1-4)Glc
# In short: as §1
# [24] = target: Glc(b1-4)Glc(b1-3)Glc
# In short: as §1
# [25] = target: Glc(b1-4)Glc(b1-3)Glc(b1-4)Glc
# In short: as §1
# [26] = target: Glc(b1-4)Glc(b1-4)Glc
# In short: as §1
# [27] = target: Glc(b1-4)Glc(b1-4)Glc(b1-3)Glc
# In short: as §1
# [28] = target: Glc(b1-4)Glc(b1-4)Glc(b1-3)Glc(b1-4)Glc(b1-4)Glc(b1-3)Glc
# In short: as §1
# [29] = target: Glc(b1-4)Glc(b1-4)Glc(b1-4)Glc
# In short: as §1
# [30] = target: Glc(b1-4)Glc(b1-4)Glc(b1-4)Glc(b1-3)Glc
# In short: as §1
# [31] = target: Glc(b1-4)Glc(b1-4)Glc(b1-4)Glc(b1-4)Glc
# In short: as §1
# [32] = target: Glc(b1-4)Glc(b1-4)Glc(b1-4)Glc(b1-4)Glc(b1-4)Glc
# In short: as §1
# [33] = target: Glc(b1-4)Glc(b1-4)Glc(b1-4)Glc(b1-4)Glc(b1-4)Glc(b1-4)Glc
# In short: as §1
# [34] = target: Glc(b1-4)Glc(b1-4)Glc(b1-4)Glc(b1-4)Glc(b1-4)Glc(b1-4)Glc(b1-4)Glc
# In short: as §1
# [35] = target: Glc(b1-4)Glc(b1-4)Glc(b1-4)Glc(b1-4)Glc(b1-4)Glc(b1-4)Glc(b1-4)Glc(b1-4)Glc
# In short: as §1
# [36] = target: Glc(b1-4)Glc(b1-4)Glc(b1-4)Glc(b1-4)Glc(b1-4)Glc(b1-4)Glc(b1-4)Glc(b1-4)Glc(b1-4)Glc
# In short: as §1
# [37] = target: Glc(b1-4)Glc(b1-4)Glc(b1-4)Glc(b1-4)Glc(b1-4)Glc(b1-4)Glc(b1-4)Glc(b1-4)Glc(b1-4)Glc(b1-4)Glc
# In short: as §1
# [38] = target: Glc(b1-4)Glc(b1-4)Glc(b1-4)Glc(b1-4)Glc(b1-4)Glc(b1-4)Glc(b1-4)Glc(b1-4)Glc(b1-4)Glc(b1-4)Glc(b1-4)Glc
# In short: as §1
# [39] = target: Glc(b1-4)Glc(b1-4)Glc(b1-4)Glc(b1-4)Glc(b1-4)Glc(b1-4)Glc(b1-4)Glc(b1-4)Glc(b1-4)Glc(b1-4)Glc(b1-4)Glc(b1-4)Glc
# In short: as §1
# [40] = target: Glc(b1-6)Glc
# In short: as §1
# [41] = target: Glc(b1-6)Glc(b1-6)Glc
# In short: as §1
# [42] = target: Glc(b1-6)Glc(b1-6)Glc(b1-6)Glc
# In short: as §1
# [43] = target: Glc(b1-6)Glc(b1-6)Glc(b1-6)Glc(b1-6)Glc
# In short: as §1
# [44] = target: Glc(b1-6)Glc(b1-6)Glc(b1-6)Glc(b1-6)Glc(b1-6)Glc
# In short: as §1
# [45] = target: Glc(b1-6)Glc(b1-6)Glc(b1-6)Glc(b1-6)Glc(b1-6)Glc(b1-6)Glc
# In short: as §1
# [46] = target: Glc(b1-6)Glc(b1-6)Glc(b1-6)Glc(b1-6)Glc(b1-6)Glc(b1-6)Glc(b1-6)Glc
# In short: as §1
# [47] = target: Glc(b1-6)Glc(b1-6)Glc(b1-6)Glc(b1-6)Glc(b1-6)Glc(b1-6)Glc(b1-6)Glc(b1-6)Glc
# In short: as §1
# [48] = target: Glc(b1-6)Glc(b1-6)Glc(b1-6)Glc(b1-6)Glc(b1-6)Glc(b1-6)Glc(b1-6)Glc(b1-6)Glc(b1-6)Glc
# In short: as §1
# [49] = target: Glc(b1-6)Glc(b1-6)Glc(b1-6)Glc(b1-6)Glc(b1-6)Glc(b1-6)Glc(b1-6)Glc(b1-6)Glc(b1-6)Glc(b1-6)Glc
# In short: as §1
# [50] = target: Glc(b1-6)Glc(b1-6)Glc(b1-6)Glc(b1-6)Glc(b1-6)Glc(b1-6)Glc(b1-6)Glc(b1-6)Glc(b1-6)Glc(b1-6)Glc(b1-6)Glc
# In short: as §1
# [51] = target: Glc(b1-6)Glc(b1-6)Glc(b1-6)Glc(b1-6)Glc(b1-6)Glc(b1-6)Glc(b1-6)Glc(b1-6)Glc(b1-6)Glc(b1-6)Glc(b1-6)Glc(b1-6)Glc
# In short: as §1
# [52] = target: Man(b1-4)Man(b1-4)Man(b1-4)Man
# In short: as §1
# [53] = target: Man(b1-4)Man(b1-4)Man(b1-4)Man(b1-4)Man
# In short: as §1
# [54] = target: Man(b1-4)Man(b1-4)Man(b1-4)Man(b1-4)Man(b1-4)Man
# In short: as §1
# [55] = target: Xyl(b1-4)Xyl(b1-4)Xyl(b1-4)Xyl(b1-4)Xyl
# In short: as §1
# [56] = target: Xyl(b1-4)Xyl(b1-4)Xyl(b1-4)Xyl(b1-4)Xyl(b1-4)Xyl
# In short: as §1
binder,measurement,setting,value
"Cel5A (Clostridium thermocellum), P16218 (protein) AVGEKMLDDFEGVLNWGSYSGEGAKVSTKIVSGKTGNGMEVSYTGTTDGYWGTVYSLPDGDWSKWLKISFDIKSVDGSANEIRFMIAEKSINGVGDGEHWVYSITPDSSWKTIEIPFSSFRRRLDYQPPGQDMSGTLDLDNIDSIHFMYANNKSGKFVVDNIKLIGATSDPTPSIKHGDLNFDNAVNSTDLLMLKRYILKSLELGTSEQEEKFKKAADLNRDNKVDSTDLTILKRYLLKAISEIPI",glycan array binding signal (z-score),[1],-0.106
same,glycan array binding signal (z-score),[2],-0.143
same,glycan array binding signal (z-score),[3],-0.143
same,glycan array binding signal (z-score),[4],-0.143
same,glycan array binding signal (z-score),[5],-0.143
same,glycan array binding signal (z-score),[6],-0.143
same,glycan array binding signal (z-score),[7],-0.143
same,glycan array binding signal (z-score),[8],0.004
same,glycan array binding signal (z-score),[9],-0.143
same,glycan array binding signal (z-score),[10],-0.143
same,glycan array binding signal (z-score),[11],-0.143
same,glycan array binding signal (z-score),[12],-0.143
same,glycan array binding signal (z-score),[13],0.035
same,glycan array binding signal (z-score),[14],0.047
same,glycan array binding signal (z-score),[15],-0.143
same,glycan array binding signal (z-score),[16],-0.114
same,glycan array binding signal (z-score),[17],-0.024
same,glycan array binding signal (z-score),[18],-0.059
same,glycan array binding signal (z-score),[19],-0.136
same,glycan array binding signal (z-score),[20],-0.102
same,glycan array binding signal (z-score),[21],-0.143
same,glycan array binding signal (z-score),[22],0.014
same,glycan array binding signal (z-score),[23],-0.113
same,glycan array binding signal (z-score),[24],-0.143
same,glycan array binding signal (z-score),[25],-0.143
same,glycan array binding signal (z-score),[26],-0.117
same,glycan array binding signal (z-score),[27],-0.143
same,glycan array binding signal (z-score),[28],4.62
same,glycan array binding signal (z-score),[29],-0.143
same,glycan array binding signal (z-score),[30],-0.143
same,glycan array binding signal (z-score),[31],-0.139
same,glycan array binding signal (z-score),[32],-0.143
same,glycan array binding signal (z-score),[33],-0.103
same,glycan array binding signal (z-score),[34],-0.143
same,glycan array binding signal (z-score),[35],-0.137
same,glycan array binding signal (z-score),[36],-0.143
same,glycan array binding signal (z-score),[37],-0.124
same,glycan array binding signal (z-score),[38],-0.094
same,glycan array binding signal (z-score),[39],-0.097
same,glycan array binding signal (z-score),[40],-0.143
same,glycan array binding signal (z-score),[41],-0.143
same,glycan array binding signal (z-score),[42],-0.143
same,glycan array binding signal (z-score),[43],-0.143
same,glycan array binding signal (z-score),[44],-0.139
same,glycan array binding signal (z-score),[45],-0.143
same,glycan array binding signal (z-score),[46],-0.143
same,glycan array binding signal (z-score),[47],-0.143
same,glycan array binding signal (z-score),[48],-0.107
same,glycan array binding signal (z-score),[49],-0.143
same,glycan array binding signal (z-score),[50],-0.113
same,glycan array binding signal (z-score),[51],-0.143
same,glycan array binding signal (z-score),[52],-0.097
same,glycan array binding signal (z-score),[53],0.04
same,glycan array binding signal (z-score),[54],-0.142
same,glycan array binding signal (z-score),[55],-0.143
same,glycan array binding signal (z-score),[56],-0.143
